# Experimental data from PubChem BioAssay AID624417 (National Center for Advancing Translational Sciences (NCATS), 2012).
# Among all 410,000 compounds or so, about 6,400 (1.6%) were called active. The inconclusive results got no clear call from the source; some entries with a clear call stand among them for comparison. Calls come from the whole dose curve; as a rule, active = well fitted inhibition curve with a large enough effect; inconclusive = small, poorly fitted or top-dose-only effect; inactive = no such curve, though single readings can be large or run the other way. No potency is given beside an inconclusive call; the fits are too rough.
# Target: Glucagon-like peptide 1 receptor (Homo sapiens) (UniProt P43220)
# Sequence of UniProt P43220 (P43220 whole entry, looked up): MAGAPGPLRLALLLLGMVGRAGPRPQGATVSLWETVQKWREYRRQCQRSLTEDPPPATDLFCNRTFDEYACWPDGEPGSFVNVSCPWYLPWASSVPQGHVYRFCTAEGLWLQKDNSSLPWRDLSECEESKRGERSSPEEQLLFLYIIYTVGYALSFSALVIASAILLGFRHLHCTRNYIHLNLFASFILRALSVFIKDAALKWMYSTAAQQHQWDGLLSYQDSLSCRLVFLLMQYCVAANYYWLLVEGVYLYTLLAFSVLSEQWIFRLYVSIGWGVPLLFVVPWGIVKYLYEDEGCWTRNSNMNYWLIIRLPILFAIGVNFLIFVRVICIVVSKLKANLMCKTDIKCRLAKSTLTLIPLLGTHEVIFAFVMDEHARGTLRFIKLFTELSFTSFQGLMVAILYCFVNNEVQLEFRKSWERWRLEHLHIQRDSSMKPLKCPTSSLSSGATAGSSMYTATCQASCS
# Experiment: qHTS of GLP-1 Receptor Inverse Agonists (Inhibition Mode); note: nearly all actives have a fitted effect of over 55% in size
# Conditions: HEK293 GLP-1R CRE-luciferase, luminescence, 24 h, GLP-1R form is constitutively active; activity change, negative = inhibition: at 38.3 µM (top of the series) unless noted
# Outline: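 Using stably transfected HEK293 (constitutively active GLP-1R, cAMP-luciferase reporter), compounds were incubated 24 hr and luciferase measured by luminescence.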
# % is set by controls: 0 for no effect and ±100 for the full control effect; potency is the fitted concentration of half-maximal effect; tags give direction and shape of the fitted curve.
Structure (SMILES),Potency,"activity change, negative = inhibition"
NS(=O)(=O)c1ccc(NC(=O)Nc2cccc(Cl)c2)cc1,"inconclusive [inhibitor, partial curve, poor fit]",–
O=C(c1ccccc1Br)N(Cc1ccco1)Cc1ccco1,"inconclusive [inhibitor, single point]",–
C/C(=N\N(C)C)c1ccc(OCCOc2ccc([N+](=O)[O-])cc2)cc1,"inconclusive [inhibitor, partial curve, poor fit]",–
CCC1CCCCN1S(=O)(=O)c1ccc(S(=O)(=O)N(Cc2ccccn2)CC2CCCO2)cc1 (centres undefined),"inconclusive [inhibitor, partial curve, poor fit]",–
CCN(CC(=O)Nc1c(Cl)cccc1Cl)C(=O)C1CCN(c2ncnc3sc(C)c(C)c23)CC1,"inconclusive [inhibitor, partial curve, poor fit]",–
COc1ccc(Oc2ccc(C(F)(F)F)cc2NC(=O)c2ccc(OC)cc2)cc1,"inconclusive [inhibitor, single point]",–
O=C(c1cccs1)N1CCN(c2cc(Cl)ccc2Cl)CC1,"inconclusive [inhibitor, single point]",–
COc1cc2oc3cc(C#Cc4ccc(N)cc4)ccc3c(=O)c2cc1OC,inactive,–
CCC1CN(C(=O)N2CCC(C(=O)Nc3ccccc3OC)CC2)c2ccccc2O1 (centres undefined),"inconclusive [inhibitor, single point]",–
COc1ccc(Cl)cc1-c1cc(C(=O)NCc2cccc(C(F)(F)F)c2)[nH]n1,"inconclusive [inhibitor, partial curve, poor fit]",–
Cc1ccc(S(=O)(=O)CC(=O)N2CCN(c3ccc([N+](=O)[O-])cc3)CC2)cc1,inactive,–
CCOc1ccc(C(=O)NC(=S)Nc2ncccc2C)cc1[N+](=O)[O-],"inconclusive [inhibitor, single point]",–
COc1ccc(C)cc1NC(=O)C1CCN(S(=O)(=O)c2cc(Br)cc3c2N(C(C)=O)CC3)CC1,inactive,–
Cc1cc(Cl)ccc1NC(=O)Cc1ccc(NC(=O)N2CCCCc3ccccc32)cc1,inactive,–
COc1ccc(-c2cc(C(=O)NC3=NCCS3)c3ccccc3n2)cc1OC,–,inactive: 39.3% [at 7.66 µM]
CCCNC(=O)c1ccc(COc2ccc(CCC)cc2OC)o1,"inconclusive [inhibitor, partial curve, poor fit]",–
Cc1ccccc1CN(C)c1ccc(S(=O)(=O)N2CCN(C)CC2)cn1,"inconclusive [inhibitor, partial curve, poor fit]",–
Cc1ccc(Nc2c(-c3ccc(C)s3)nc3ccccn23)cc1,"inconclusive [inhibitor, single point]",–
COc1ccc(/C=N/NC(=O)c2ccc(-n3cnnn3)cc2)cc1,"inconclusive [inhibitor, single point]",–
CC(C)CCNC(=O)CN(Cc1ccc2c(c1)OCO2)C(=O)Cn1nnc(-c2cccs2)n1,"inconclusive [inhibitor, single point]",–

Structure (SMILES),Potency,"activity change, negative = inhibition"
Cc1c(C)c2ccc(OCC(=O)Nc3ccccn3)c(C)c2oc1=O,active: 10 µM,–
Cc1ccc(N(Cc2ccccc2)C(=O)c2cccc(S(=O)(=O)N3CCOCC3)c2)cc1,"inconclusive [inhibitor, partial curve, poor fit]",–
O=C(NCC1COc2ccccc2O1)C1C2C=CC3(CN(Cc4ccccc4Cl)C(=O)C13)O2 (centres undefined),"inconclusive [inhibitor, partial curve, poor fit]",–
O=C(N1CCN(c2ccc(F)cc2)CC1)C12CC3CC(CC(C3)C1)C2,"inconclusive [inhibitor, full curve, poor fit]",–
COc1ccc2nc(/C=N/NC(=O)[C@@H]3CCCN3C(=O)OC(C)(C)C)ccc2c1,inactive,–
CN(CCNC(=O)c1cc2c(=O)n(C)c3ccccc3c2n1C)Cc1ccccc1,"inconclusive [inhibitor, single point]",–
COc1ccc(CNC(C)C2COc3ccccc3O2)c(OC)c1 (centres undefined),"inconclusive [inhibitor, partial curve, poor fit]",–
O=C(CC(=O)c1c(F)cccc1Cl)c1ccccc1O,"inconclusive [inhibitor, partial curve, poor fit]",–
O=C(Cn1cnc2c(NCc3ccccc3)ncnc21)NCc1ccccc1,"inconclusive [inhibitor, full curve]",–
O=S(=O)(Nc1cccc(-c2cn3cccnc3n2)c1)c1ccc(Cl)cc1,inactive,–
Cc1ccc(C(=O)Nc2ccccc2-c2ccccc2)o1,"inconclusive [inhibitor, partial curve, poor fit]",–
CCC(=O)Nc1ccc(C(=O)Cn2ncc(Cl)c(Cl)c2=O)cc1,"inconclusive [inhibitor, single point]",–
c1ccc(Cn2c(NCc3ccccn3)nc3ccccc32)cc1,"inconclusive [inhibitor, single point]",–
CN1CCN(C(=O)C2CCN(c3ncc(C(F)(F)F)cc3Cl)CC2)CC1,"inconclusive [inhibitor, partial curve]",–
CCn1c2ccccc2c2cc(NC(C)=O)ccc21,"inconclusive [inhibitor, single point]",–
C=CCN1C(=O)C(Cc2ccc(F)cc2)S/C1=N/N=C/c1cccs1 (centres undefined),"inconclusive [inhibitor, single point]",–
Cc1cnc(C(=O)OCC(=O)Nc2cc(-c3cc(C)c(C)cc3C)nn2-c2ccccc2)cn1,"inconclusive [inhibitor, partial curve, poor fit]",–
CC(c1ccco1)N(C(=O)c1ccccc1NS(=O)(=O)c1ccc(Cl)c([N+](=O)[O-])c1)c1ccccn1 (centres undefined),"inconclusive [inhibitor, single point]",–
O=C1C2CC=CCC2C(=O)N1Nc1ccccc1 (centres undefined),"inconclusive [inhibitor, full curve, poor fit]",–
